Test results taken from PubChem BioAssay AID720542 (National Center for Advancing Translational Sciences (NCATS), 2013).
The whole screen tested about 360,000 compounds, of which about 740 (0.21%) were called active. The shares of active, inactive and inconclusive entries below differ from those in the screen. Calls come from the whole dose curve; as a rule, active = well fitted inhibition curve with a large enough effect; inconclusive = small, poorly fitted or top-dose-only effect; inactive = no such curve, though single readings can be large or run the other way. Potencies of inconclusive entries are left out as doubtful fits.

system: Plasmodium falciparum AMA1 (3D7) - RON2 peptide interaction; experiment: qHTS for Inhibitors of AMA1-RON; Towards Development of Antimalarial Drug Lead: Primary Screen; conditions: AlphaScreen AMA1-biotinylated RON2 peptide binding; activity change, negative = inhibition: at 58.2 µM (top of the series); note: nearly all actives have a fitted effect of over 45% in size;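 for activity change, negative = inhibition: 0% = vehicle wells and -100% = peptide control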
Summary of the method: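 AMA1 (3D7) with his tag at 25 nM final met compounds first, then biotinylated RON2 peptide at 25 nM; detection used donor plus acceptor beads, 10 µg/mL apiece, read by AlphaScreen after 30 min at room temperature.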
Potency is the fitted concentration of half-maximal effect; tags give direction and shape of the fitted curve.

Compound	Potency	activity change, negative = inhibition
Fc1ccc(C(c2nnnn2CCc2ccccc2)N2CCCc3ccccc32)cc1 (stereo not given)	inconclusive [inhibitor, partial curve]	
Cc1ccccc1/C=C1\OC(=O)c2ccccc21		inactive: 0.979%
COc1ccc(C2=NN(C(=O)c3ccccc3)C(c3cccc([N+](=O)[O-])c3)C2)cc1 (stereo not given)	inconclusive [inhibitor, single point]	
O=C(Nc1cccc(Cl)c1)c1cc(S(=O)(=O)NCCc2ccc(Cl)cc2)ccc1F	inconclusive [inhibitor, single point]	
CNc1ccc(Br)cc(C(=O)/C=C/c2cc(OC)ccc2OC)c1=O	inconclusive [inhibitor, full curve]	
N#Cc1ccc2nc(-c3ccc(CN4CCC(n5c(=O)[nH]c6ccccc65)CC4)cc3)c(-c3ccccc3)nc2c1	inconclusive [inhibitor, full curve, poor fit]	
COc1ccc(NC(=O)C2(C)CCN2Cc2ccc(OC)c3ccccc23)cc1OC (stereo not given)	inconclusive [inhibitor, single point]	
Cc1ccc(CC2CC(=O)N(c3cc(Cl)ccn3)C2=O)cc1 (stereo not given)		inactive: -15.4%
COc1ccc(-c2csc(NC(=O)C3CCCO3)n2)cc1 (stereo not given)		inactive: -7.91%
COc1cc(CNc2ncc(-c3ccc(Br)cc3)n2C)cc(OC)c1OC	inconclusive [inhibitor, single point]	
Cc1nc(N2CCCCC2)c2c(-c3cccs3)csc2n1	inconclusive [inhibitor, partial curve]	
COc1ccc(N/C=C/C(=O)C(C)(C)C)cc1	inconclusive [inhibitor, partial curve]	
O=C1C=C(c2ccccc2)C[C@@H](c2ccc3c(c2)OCO3)C1	inconclusive [inhibitor, single point]	
CC(=O)Oc1cc(O)c2c(=O)c(OC(C)=O)c(-c3ccc(OC(C)=O)c(OC(C)=O)c3)oc2c1	inconclusive [inhibitor, full curve, poor fit]	
O=C(CCc1ccc(Oc2cc([N+](=O)[O-])cc([N+](=O)[O-])c2)cc1)N1CCCCCC1	inconclusive [inhibitor, single point]	
CCN(Cc1ccccc1)C(=O)COc1ccccc1	inconclusive [inhibitor, full curve, poor fit]	
Cc1ccc(N2C(=O)C3C4C=CC(CNC(=S)Nc5ccc(F)cc5)(O4)C3C2=O)cc1 (stereo not given)		inactive: 10.5%
Cc1ccc(-n2cc(-c3ccccc3)c3c(N4CCOCC4)ncnc32)cc1	inconclusive [inhibitor, partial curve]	
CC1CN(CCC(=O)Nc2ccc3c(c2)OCO3)CC(C)O1 (stereo not given)	inconclusive [inhibitor, single point]	
COc1cccc(CN2CCN(C(=O)c3ccc(-c4ccccc4)cc3)CC2)c1	inconclusive [inhibitor, partial curve]	

Compound	Potency	activity change, negative = inhibition
NS(=O)(=O)c1ccc(CNC(=O)CCSCCC(=O)NCc2ccc(S(N)(=O)=O)cc2)cc1		inactive: -8.79%
O=[N+]([O-])c1ccc(CNCCc2ccccc2)cc1	inconclusive [inhibitor, partial curve]	
Cc1ccc(CC(=O)Nc2ccccc2-c2ccccc2)cc1C	inconclusive [inhibitor, partial curve]	
COc1ccc(C(CCNC(C)c2ccccc2)C(C)C)cc1 (stereo not given)		inactive: -3.28%
Cc1ccc(S(=O)(=O)N[C@@H](Cc2ccccc2)C(=O)CCl)cc1	inconclusive [inhibitor, partial curve]	
O=C1c2ccccc2COc2ccc(O)cc21	inconclusive [inhibitor, single point]	
CCn1c(C)cc(/C=C2\NC(=O)N(Cc3ccc(Cl)cc3)C2=O)c1C		inactive: -1.98%
COc1cccc(CNc2ccc([N+](=O)[O-])cc2C)c1	inconclusive [inhibitor, partial curve]	
CN1/C(=C/C(=S)NC(=O)C2CCC2)C(C)(C)c2ccccc21	inconclusive [inhibitor, partial curve]	
COC(=O)c1cnn(-c2ccc(Cl)cc2)c1/C=N/NC(N)=S		inactive: 93%
COc1ccc(CN2CCN(c3ncccn3)CC2)c(C)c1C	inconclusive [inhibitor, single point]	
CC12CCC(=O)CC1CCC1C2C(=O)CC2(C)C1CCC2(C)O (stereo not given)	inconclusive [inhibitor, single point]	
COc1cccc(OCCNc2cc(Cl)ccc2[N+](=O)[O-])c1	inconclusive [inhibitor, partial curve]	
O=C1c2ccccc2C2=Nc3ccccc3SC(c3cccc(F)c3)C12 (stereo not given)	inconclusive [inhibitor, single point]	
Cn1c(-c2ccc(F)cc2)cnc1SCC(=O)Nc1ccccc1N1CCOCC1	inconclusive [inhibitor, partial curve]	
Cc1nc(NC(=O)c2ccc(Cl)cc2)sc1Cc1ccc2c(c1)OCO2	inconclusive [inhibitor, single point]	
CCOC(=O)C1CCN(c2c(NCc3ccc(C(=O)N(C)Cc4ccccc4)cc3)c(=O)c2=O)CC1	inconclusive [inhibitor, full curve]	
CCOc1ccc(C(=O)c2nc3c(n2O)CCCC3)cc1		inactive: 22.9%
C/C(=C\c1ccccc1)CN1CCN(c2ccccc2)CC1	inconclusive [inhibitor, partial curve]	
Clc1ccc(CCNCc2ccncc2)c(Cl)c1	inconclusive [inhibitor, single point]	
